Measured values taken from the supplement of paper PMC12217912.
The other results are listed elsewhere or left out. The full chains were built here from the parent and the listed change. Inactive controls read about 0.05.

B1: TEV protease; numbered along this chain (parent)
chain: MGESLFKGPRDYNPISSSICHLTNESDGHTTSLYGIGFGPFIITNKHLFRRNNGTLVVQSLHGVFKVKDTTTLQQHLVDGRDMIIIRMPKDFPPFPQKLKFREPQREERICLVTTNFQTKSMSSMVSDTSCTFPSGDGIFWKHWIQTKDGQCGSPLVSTRDGFIVGIHSASNFTNTNNYFTSVPKNFMELLTNQEAQQWVSGWRLNADSVLWGGHKVFMVKPEEPFQPVKEATQL

Variants of: B1
Experiment: raw area under fraction-flipped curve 0-4 h after induction (AUC4h, not background-subtracted), DNA-recorder readout of cleavage of the substrate (dimensionless); higher = more cleavage of the substrate by the protease variant
Conditions: temperature: 34 °C; time window: 0-4 h after rhamnose induction
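Also: Bxb1 expression induced with 0.2% (w/v) L-rhamnose at OD600 near 0.5, cultures sampled hourly, flipped fraction per protease–substrate barcode pair counted by paired-end Illumina sequencing.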

Variant	area with substrate ENLYFQD	area with substrate ENLYFQN	area with substrate ENLYFQQ	area with substrate ENLYFQS	area with substrate ENLYFQT	area with substrate ENLYFQV	area with substrate ENLYFQY	area with substrate ENLYFQH	area with substrate ENLYFQK	area with substrate ENLYFQL
F117A	0.0764	0.095	0.0681	0.0966	0.0602	0.0891	0.117	–	–	–
I36K	0.0395	–	–	0.041	–	0.0421	–	0.0435	0.0461	0.0482
K66G	0.0691	0.0733	–	0.101	0.0791	0.0619	–	0.0839	0.0622	0.0683
G2R	0.08	0.0787	–	0.124	0.0601	–	0.0915	0.0916	–	0.0668
F6I	0.0713	–	–	0.11	0.0676	–	0.0796	–	–	–
N193L	0.0567	0.0566	–	0.0879	–	0.0771	0.0825	0.0686	0.0653	0.0531
Q59P	0.0354	0.0537	–	0.0421	0.0302	–	–	0.0263	–	0.0372
Q74K	0.0718	0.0722	–	0.0982	0.065	–	–	0.0817	–	0.0589
L205T	0.0554	–	–	0.0765	–	0.0601	–	–	–	–
Q151D	0.0888	0.0789	–	0.105	0.0495	0.126	0.0861	0.0833	–	0.0648
K68P	–	0.0685	–	0.111	0.0667	–	–	0.108	–	0.0628
E107I	–	–	–	0.0917	0.0629	–	0.0604	–	0.0562	–
N178G	–	–	–	0.116	–	0.064	–	–	–	–
P228L	–	0.0946	–	0.102	–	–	0.0747	–	–	–
G37Y	–	–	–	0.0629	0.0454	–	–	0.0687	0.0454	0.0709
P228G	–	0.0509	–	0.106	–	–	–	–	0.0591	0.0523
R109V	–	0.0796	0.0839	0.0903	0.0734	0.0535	–	0.0845	0.0686	0.0613
V113F	–	–	–	0.0955	–	–	–	–	–	–

Same assay, conditions: temperature: 34 °C; time window: 0-4 h after rhamnose induction

Variant	area with substrate ENLYFQM	area with substrate ENLYFQR	area with substrate ENLYFQW	area with substrate ENLYFQG	area with substrate ENLYFQI	area with substrate ENLYFQE	area with substrate ENLYFQP	area with substrate ENLYFQF
I36K	0.0391	0.0386	0.0767	–	–	–	–	–
K66G	0.0889	0.0598	0.0647	0.102	0.0618	–	–	–
G2R	0.126	0.0617	0.0702	–	0.0431	0.0987	–	–
F6I	–	0.087	–	0.121	–	–	0.0699	–
N193L	0.0675	0.0514	–	–	0.0649	–	0.065	–
Q59P	0.0259	0.0371	–	–	–	–	–	–
Q74K	0.0896	0.0697	–	0.102	0.0839	–	0.0412	–
L205T	–	–	–	–	0.05	–	–	–
Q151D	0.097	–	0.0718	0.0845	0.0649	–	0.0595	–
K68P	0.106	0.0322	0.053	0.118	0.0477	0.109	0.0505	0.0871
E107I	–	–	–	0.113	0.0558	0.0634	–	–
N178G	–	0.0718	–	–	0.0576	–	0.0439	0.074
P228L	–	–	0.0718	–	0.0533	–	–	0.0742
G37Y	–	0.0341	0.047	0.05	0.0331	–	–	0.0625
P228G	0.0817	0.0588	0.0671	–	–	–	–	0.0874
R109V	–	0.0854	0.0764	0.068	–	–	–	0.0837
V113F	–	–	–	0.0752	–	–	–	–
